Laboratory results from paper PMC12820563.
The list shows a part of the results. The list includes weakly bound sequences.

These sequences were tested against T1, MBP-FoxP3dN (UniProt Q99JB6) (assay: PD-seq (MBP pull-down with sequencing)). Conditions: 20 mM Tris-HCl pH 7.5, 100 mM NaCl, 1.5 mM MgCl2, 0.4 uM protein, 0.1 uM dsDNA library, 30 min, room temperature, amylose pull-down; high values mean tight binding; double strand, one strand shown.
T1 sequence: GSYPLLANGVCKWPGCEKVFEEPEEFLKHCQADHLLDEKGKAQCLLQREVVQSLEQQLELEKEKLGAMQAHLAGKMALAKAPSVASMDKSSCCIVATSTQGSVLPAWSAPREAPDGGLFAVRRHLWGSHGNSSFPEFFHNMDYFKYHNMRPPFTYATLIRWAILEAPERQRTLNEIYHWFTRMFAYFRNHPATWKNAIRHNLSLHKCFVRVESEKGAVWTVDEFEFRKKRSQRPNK

Sequence	binding signal (RPM ratio (pull-down/input))
GATGATTGTTCTCCCAGCTGATGAATTCAGACGGTCGAGTAAACAAATTTTCCTAATCTTTCTGTTCAAGCGCCATCTAC	0.228
GATGATTGTTCTCCCAGCTGATGAATTTTCGATCTCGAGTAAACAAATTTTCCTAATCTTTCTGTTCAAGCGCCATCTAC	0.311
GATGATTGTTCTCCCAGCTGATGAATTGTACTTATCGAGTAAACAAATTTTCCTAATCTTTCTGTTCAAGCGCCATCTAC	1.19
GATGATTGTTCTCCCAGCTGATGAATTGATCACGTCGAGTAAACAAATTTTCCTAATCTTTCTGTTCAAGCGCCATCTAC	0.543
GATGATTGTTCTCCCAGCTGATGAATTAGCAGACTCGAGTAAACAAATTTTCCTAATCTTTCTGTTCAAGCGCCATCTAC	0.288
GATGATTGTTCTCCCAGCTGATGAATTGTCCTCCTCGAGTAAACAAATTTTCCTAATCTTTCTGTTCAAGCGCCATCTAC	0.37
GATGATTGTTCTCCCAGCTGATGAATTCCGGCTGTCGAGTAAACAAATTTTCCTAATCTTTCTGTTCAAGCGCCATCTAC	0.302
GATGATTGTTCTCCCAGCTGATGAATTTTCTCACTCGAGTAAACAAATTTTCCTAATCTTTCTGTTCAAGCGCCATCTAC	0.291
GATGATTGTTCTCCCAGCTGATGAATTGTGACAGTCGAGTAAACAAATTTTCCTAATCTTTCTGTTCAAGCGCCATCTAC	0.817
GATGATTGTTCTCCCAGCTGATGAATTTATGGTGTCGAGTAAACAAATTTTCCTAATCTTTCTGTTCAAGCGCCATCTAC	3.64
GATGATTGTTCTCCCAGCTGATGAATTATGTAGGTCGAGTAAACAAATTTTCCTAATCTTTCTGTTCAAGCGCCATCTAC	1.28
GATGATTGTTCTCCCAGCTGATGAATTCCTTACCTCGAGTAAACAAATTTTCCTAATCTTTCTGTTCAAGCGCCATCTAC	0.252
GATGATTGTTCTCCCAGCTGATGAATTGTGAAGGTCGAGTAAACAAATTTTCCTAATCTTTCTGTTCAAGCGCCATCTAC	0.362
GATGATTGTTCTCCCAGCTGATGAATTGAATCCTTCGAGTAAACAAATTTTCCTAATCTTTCTGTTCAAGCGCCATCTAC	0.33
GATGATTGTTCTCCCAGCTGATGAATTATAGAGCTCGAGTAAACAAATTTTCCTAATCTTTCTGTTCAAGCGCCATCTAC	0.248
GATGATTGTTCTCCCAGCTGATGAATTGGTAAGTTCGAGTAAACAAATTTTCCTAATCTTTCTGTTCAAGCGCCATCTAC	0.45

Sequence	binding signal (RPM ratio (pull-down/input))
GATGATTGTTCTCCCAGCTGATGAATTATCGGCATCGAGTAAACAAATTTTCCTAATCTTTCTGTTCAAGCGCCATCTAC	0.831
GATGATTGTTCTCCCAGCTGATGAATTGACCGATTCGAGTAAACAAATTTTCCTAATCTTTCTGTTCAAGCGCCATCTAC	0.269
GATGATTGTTCTCCCAGCTGATGAATTGAGAAGGTCGAGTAAACAAATTTTCCTAATCTTTCTGTTCAAGCGCCATCTAC	0.206
GATGATTGTTCTCCCAGCTGATGAATTTCGTTGGTCGAGTAAACAAATTTTCCTAATCTTTCTGTTCAAGCGCCATCTAC	1.76
GATGATTGTTCTCCCAGCTGATGAATTTCCACTTTCGAGTAAACAAATTTTCCTAATCTTTCTGTTCAAGCGCCATCTAC	0.28
GATGATTGTTCTCCCAGCTGATGAATTAAATATGTCGAGTAAACAAATTTTCCTAATCTTTCTGTTCAAGCGCCATCTAC	0.778
GATGATTGTTCTCCCAGCTGATGAATTCCCTGTGTCGAGTAAACAAATTTTCCTAATCTTTCTGTTCAAGCGCCATCTAC	0.347
GATGATTGTTCTCCCAGCTGATGAATTGTGTCCTTCGAGTAAACAAATTTTCCTAATCTTTCTGTTCAAGCGCCATCTAC	1.89
GATGATTGTTCTCCCAGCTGATGAATTTACGATCTCGAGTAAACAAATTTTCCTAATCTTTCTGTTCAAGCGCCATCTAC	0.505
GATGATTGTTCTCCCAGCTGATGAATTTTAGGAATCGAGTAAACAAATTTTCCTAATCTTTCTGTTCAAGCGCCATCTAC	0.177
GATGATTGTTCTCCCAGCTGATGAATTGTAACACTCGAGTAAACAAATTTTCCTAATCTTTCTGTTCAAGCGCCATCTAC	1.07
GATGATTGTTCTCCCAGCTGATGAATTGGGGAGCTCGAGTAAACAAATTTTCCTAATCTTTCTGTTCAAGCGCCATCTAC	0.252
GATGATTGTTCTCCCAGCTGATGAATTTAAAATGTCGAGTAAACAAATTTTCCTAATCTTTCTGTTCAAGCGCCATCTAC	0.242
GATGATTGTTCTCCCAGCTGATGAATTATACATTTCGAGTAAACAAATTTTCCTAATCTTTCTGTTCAAGCGCCATCTAC	0.752
GATGATTGTTCTCCCAGCTGATGAATTGGAGCTCTCGAGTAAACAAATTTTCCTAATCTTTCTGTTCAAGCGCCATCTAC	0.276
